The values that follow come from paper PMC4336329 (PLoS ONE, 2015).

About 2,200 (0.71%) of roughly 310,000 compounds showed an effect of 50% or more. The effect is printed as a negative number. Some of the results follow.

Sequence of human ether-à-go-go-related gene (hERG) potassium channel (Q12809 whole entry, looked up): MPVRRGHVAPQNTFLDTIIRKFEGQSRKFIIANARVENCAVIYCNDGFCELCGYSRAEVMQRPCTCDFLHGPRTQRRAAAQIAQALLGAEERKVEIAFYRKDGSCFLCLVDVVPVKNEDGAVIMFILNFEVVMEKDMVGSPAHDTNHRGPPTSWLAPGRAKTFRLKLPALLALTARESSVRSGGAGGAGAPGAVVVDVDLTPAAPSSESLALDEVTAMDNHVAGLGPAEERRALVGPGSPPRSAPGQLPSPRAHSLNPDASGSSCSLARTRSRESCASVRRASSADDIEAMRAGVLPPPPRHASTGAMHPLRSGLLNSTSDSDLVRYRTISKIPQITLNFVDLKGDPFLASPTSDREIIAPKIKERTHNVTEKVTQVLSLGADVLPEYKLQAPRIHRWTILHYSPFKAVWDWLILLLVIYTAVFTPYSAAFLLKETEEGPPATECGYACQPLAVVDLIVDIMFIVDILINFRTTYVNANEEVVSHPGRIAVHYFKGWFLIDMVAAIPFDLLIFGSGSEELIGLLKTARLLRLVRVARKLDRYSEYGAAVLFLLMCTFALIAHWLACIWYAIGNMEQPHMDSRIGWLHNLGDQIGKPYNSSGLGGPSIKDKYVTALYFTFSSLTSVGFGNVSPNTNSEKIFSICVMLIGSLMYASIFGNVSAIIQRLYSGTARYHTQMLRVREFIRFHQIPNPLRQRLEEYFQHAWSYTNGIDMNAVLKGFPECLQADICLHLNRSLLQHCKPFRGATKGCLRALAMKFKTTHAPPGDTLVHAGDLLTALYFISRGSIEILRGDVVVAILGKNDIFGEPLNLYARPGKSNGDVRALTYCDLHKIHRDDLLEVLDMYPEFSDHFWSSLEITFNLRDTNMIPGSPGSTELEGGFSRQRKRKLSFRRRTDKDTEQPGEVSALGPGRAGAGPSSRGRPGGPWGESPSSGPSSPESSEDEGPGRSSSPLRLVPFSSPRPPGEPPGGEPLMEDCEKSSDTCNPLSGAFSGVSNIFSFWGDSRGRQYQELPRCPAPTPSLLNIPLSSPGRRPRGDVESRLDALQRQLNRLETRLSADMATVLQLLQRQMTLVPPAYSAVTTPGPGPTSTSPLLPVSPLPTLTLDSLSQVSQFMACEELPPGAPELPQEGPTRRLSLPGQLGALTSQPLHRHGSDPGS

The experiment has as its target human ether-à-go-go-related gene (hERG) potassium channel (human, UniProt Q12809). In words: primary screen, population patch clamp on CHO cells stably expressing hERG.
`O=C1CCC(=O)N1N1C(=O)C2C3c4ccccc4C(c4ccccc43)C2C1=O` (stereo not shown): the “hERG current change (%, negative = inhibition) at 1uM” value stood at 17.5%.

With `CC1CC(=O)N(CC(=O)N2CCCC2)c2ccccc2S1` (stereo not shown), the “hERG current change (%, negative = inhibition) at 1uM” value is given as -10.2%.

With `Cc1c(C(=O)NCc2n[nH]c(=S)n2-c2ccc(F)cc2)cccc1[N+](=O)[O-]`, the “hERG current change (%, negative = inhibition) at 1uM” value is listed as 11.3%.

Turning to `Cc1ccc(S(=O)(=O)N(C)C)cc1NC(=O)CN1C(=O)NC2(CCCc3ccccc32)C1=O` (stereo not shown), the “hERG current change (%, negative = inhibition) at 1uM” value is -0.276%.

`COc1ccccc1NC(=O)Cn1c(CCC(=O)O)ccc1-c1ccc(C)cc1`: the “hERG current change (%, negative = inhibition) at 1uM” value was determined as 15.1%.

For the compound `O=C(CCN1C(=O)COc2ccccc21)NCc1ccco1`, the “hERG current change (%, negative = inhibition) at 1uM” value came out at 12.7%.

As to `Cc1cc(=O)n(CNC(=O)c2ccccc2)c(=S)[nH]1`, the “hERG current change (%, negative = inhibition) at 1uM” value was found to be 6.87%.

`O=C(NCC(c1ccco1)N1CCc2ccccc21)c1c(F)cccc1F` (stereo not shown): the “hERG current change (%, negative = inhibition) at 1uM” value is 2.62%.

Turning to `O=C(COc1ccccc1C(=O)Nc1ccccc1)NCCc1ccccc1`, the “hERG current change (%, negative = inhibition) at 1uM” value worked out at 28%.

On to `O=C(CN1CCN(S(=O)(=O)c2ccccc2)CC1)Nc1ccc(Cl)c(Cl)c1`, for which the “hERG current change (%, negative = inhibition) at 1uM” value is 2.02%.

As to `CN1CCN(c2ccc(NC(=O)c3ccc(-c4ccc(Cl)cc4)o3)cc2)CC1`, the “hERG current change (%, negative = inhibition) at 1uM” value is recorded as 15.1%.

Turning to `CCOc1cc(C(=O)Nc2ccon2)cc(OCC)c1OCC`, the “hERG current change (%, negative = inhibition) at 1uM” value is -7.83%.

Consider `O=C(O)C(=O)O.OC(CN1CCCC1)Cn1ccc2ccccc21` (stereo not shown), for which the “hERG current change (%, negative = inhibition) at 1uM” value came to 10.8%.

`C1CCN(Cc2nnnn2CC2CCCO2)CC1.Cl` (stereo not shown): the “hERG current change (%, negative = inhibition) at 1uM” value is listed as 12.1%.

Take `CC(=O)Cc1nsc(NC(=O)c2cc(-c3ccccc3Cl)oc2C)n1`: the “hERG current change (%, negative = inhibition) at 1uM” value is 10.6%.

Consider `NC1=NC2(CCCCCC2)n2c(nc3ccccc32)N1`, for which the “hERG current change (%, negative = inhibition) at 1uM” value is listed as -23.4%.

Take `O=c1c2ccccc2c(/C=N/NS(=O)(=O)c2ccccc2)c(O)n1-c1ccccn1`: the “hERG current change (%, negative = inhibition) at 1uM” value worked out at 6.22%.

`COc1ccc(F)c(-c2nc(CN3CCC(c4ccccc4)CC3)c(C)o2)c1`: the “hERG current change (%, negative = inhibition) at 1uM” value is -1.64%.

As to `Cc1ccccc1C(=O)Nc1ccc2c(c1)OCCO2`, the “hERG current change (%, negative = inhibition) at 1uM” value is reported as 9.84%.

With `O=C(NCC1COc2ccccc2O1)C1CCCN(S(=O)(=O)c2cccc3nsnc23)C1` (stereo not shown), the “hERG current change (%, negative = inhibition) at 1uM” value came out at 5.82%.

`CCOC(=O)C(NC(C)=O)(N1CCc2ccccc2C1)C(F)(F)F` (stereo not shown): the “hERG current change (%, negative = inhibition) at 1uM” value came to 9.57%.

In the case of `O=C(c1ccc([N+](=O)[O-])cc1)N1C=CC(C(F)(F)F)=NCC1`, the “hERG current change (%, negative = inhibition) at 1uM” value was found to be 10.1%.

Consider `CNC(=S)N(Cc1cc2ccc(OC)cc2[nH]c1=O)CC1CCCO1` (stereo not shown), for which the “hERG current change (%, negative = inhibition) at 1uM” value was 5.17%.

As for `O=C(CN1C(=O)CSc2ncccc21)N1CCOCC1`, the “hERG current change (%, negative = inhibition) at 1uM” value is on record as -7.7%.

Take `COc1ccc(S(=O)(=O)N2CCOC2CNC(=O)C(=O)NCc2cccnc2)cc1C` (stereo not shown): the “hERG current change (%, negative = inhibition) at 1uM” value amounted to 9.37%.

Consider `O=C(CCNC(=O)c1ccco1)Nc1ccc(Cl)cc1F`, for which the “hERG current change (%, negative = inhibition) at 1uM” value is given as 9.55%.

On to `COc1cccc(-c2nnc(SCc3nc4ccccc4[nH]3)n2N)c1`, for which the “hERG current change (%, negative = inhibition) at 1uM” value is -3.78%.

As for `O=C(CC(NCc1ccccn1)C(=O)O)Nc1ccccc1Cl` (stereo not shown), the “hERG current change (%, negative = inhibition) at 1uM” value is 12.3%.

In the case of `COc1ccc(C)cc1NC(=O)CCCNC(=O)Cn1cnc2sc(C)c(C)c2c1=O`, the “hERG current change (%, negative = inhibition) at 1uM” value was 10.2%.

As to `Cc1cc(NC(=O)CSc2ncccn2)no1`, the “hERG current change (%, negative = inhibition) at 1uM” value came out at 14.6%.

With `CN(c1nc(-c2ccccc2)cs1)C1CCS(=O)(=O)C1` (stereo not shown), the “hERG current change (%, negative = inhibition) at 1uM” value is recorded as -2.58%.

As to `COC(=O)c1ccccc1NC(=O)Nc1c(C)n(C)n(-c2ccccc2)c1=O`, the “hERG current change (%, negative = inhibition) at 1uM” value stood at 7.05%.

In the case of `Cc1cc2ccccc2c(=O)n1CC(=O)NC1CCCCCC1`, the “hERG current change (%, negative = inhibition) at 1uM” value came out at 18.1%.

With `COc1ccc(CCC(=O)NCc2ccccc2OC)cc1`, the “hERG current change (%, negative = inhibition) at 1uM” value worked out at 8.29%.

As to `CC(=O)Nc1cc2c(cc1NC(=O)Cn1nc(-c3ccccc3)ccc1=O)OCCO2`, the “hERG current change (%, negative = inhibition) at 1uM” value is 8.85%.

As for `O=C(NC1CCOc2ccccc21)c1ccccn1` (stereo not shown), the “hERG current change (%, negative = inhibition) at 1uM” value was determined as 9.69%.

`CN(C)/C=C1/C(=O)N(c2ccc([N+](=O)[O-])cc2)N=C1c1ccccc1`: the “hERG current change (%, negative = inhibition) at 1uM” value is -0.615%.

As to `COc1ccc(-n2cc(CNCCc3cscn3)c(-c3ccccc3Cl)n2)cc1`, the “hERG current change (%, negative = inhibition) at 1uM” value is recorded as -3.2%.

For `Cc1ccc2c(c1)[C@H]1OCC[C@H]1[C@@H](c1ccncc1)N2`, the “hERG current change (%, negative = inhibition) at 1uM” value is recorded as 14.5%.

Consider `NC(=O)c1ccc(-n2nnnc2SCC(=O)NC2CCCCC2)cc1`, for which the “hERG current change (%, negative = inhibition) at 1uM” value turned out to be 4.41%.

In the case of `Cc1cc(NC(=O)CSc2nc(=O)cc(N)n2-c2ccc(Cl)cc2)no1`, the “hERG current change (%, negative = inhibition) at 1uM” value amounted to 9.47%.

Regarding `Cn1c(N)c(Sc2ccc(F)cc2)c(=O)n(C)c1=O`, the “hERG current change (%, negative = inhibition) at 1uM” value is 14.2%.

For `Cc1ccc2c(c1)C(=O)N(CCCCO)C2=O`, the “hERG current change (%, negative = inhibition) at 1uM” value worked out at 9.59%.

With `CC(C)N(Cc1nc(-c2ccc(Cl)cc2)no1)Cc1nccn1C`, the “hERG current change (%, negative = inhibition) at 1uM” value is -11%.

In the case of `Cc1nn(C)cc1S(=O)(=O)NCc1ccc2c(c1)OCO2`, the “hERG current change (%, negative = inhibition) at 1uM” value is given as 9.84%.

Consider `O=C(Nc1nc(-c2ccccn2)cs1)c1ncc(Cl)c(Cl)c1Cl`, for which the “hERG current change (%, negative = inhibition) at 1uM” value worked out at 3.67%.

On to `CCCCCN(C(=O)NC(=O)NC(C)CC)S(C)(=O)=O` (stereo not shown), for which the “hERG current change (%, negative = inhibition) at 1uM” value stood at 14.4%.

Take `O=c1c2ccccc2ncn1-c1ccccc1[N+](=O)[O-]`: the “hERG current change (%, negative = inhibition) at 1uM” value stood at 16.6%.

On to `CCOc1ccc(NC(=O)C2CCN(S(=O)(=O)c3cccnc3)CC2)cc1`, for which the “hERG current change (%, negative = inhibition) at 1uM” value worked out at 4.16%.

Turning to `CC(=O)N1CCc2cc(S(=O)(=O)NC(C(=O)Nc3ccc4c(c3)OCCO4)C(C)C)ccc21` (stereo not shown), the “hERG current change (%, negative = inhibition) at 1uM” value is 15.6%.

Consider `Cc1cc(N2CCCN(C)CC2)nc2cc(Cl)ccc12`, for which the “hERG current change (%, negative = inhibition) at 1uM” value is reported as -22.8%.

Regarding `Cc1csc(SCC(=O)NCc2cccs2)n1`, the “hERG current change (%, negative = inhibition) at 1uM” value turned out to be 6.19%.

`CS(=O)(=O)N(CC(=O)Nc1ccccc1C(=O)NCc1ccco1)c1ccc2c(c1)OCCO2`: the “hERG current change (%, negative = inhibition) at 1uM” value is 6.3%.

As for `CN(C)CCCN(C(=O)COc1ccc(Cl)cc1)c1nc2ccc(F)cc2s1.Cl`, the “hERG current change (%, negative = inhibition) at 1uM” value worked out at 8.45%.

In the case of `CCN(CC)C(=O)c1cc(-c2ccc3c(c2)OCO3)on1`, the “hERG current change (%, negative = inhibition) at 1uM” value is reported as 15.6%.

With `COc1ccccc1NC(=O)Cn1c(=O)n2nc(C)nc2c2ccccc21`, the “hERG current change (%, negative = inhibition) at 1uM” value is reported as 6.94%.

As for `Cc1ccc2c(c1)N(Cc1cccc(Cl)c1)C(=O)c1cccnc1O2`, the “hERG current change (%, negative = inhibition) at 1uM” value is -9.13%.

`CCOc1cc(C2CC(=O)N3CN(C4CCCCC4)CSC3=C2C#N)ccc1O` (stereo not shown): the “hERG current change (%, negative = inhibition) at 1uM” value was determined as 10.5%.
